# Test results: the BET-seq Pho4 binding data (Le et al. 2018)
# Some of the results follow. These are noisy estimates, calculated here from bound and input reads.
# Biological target: T1, Pho4 (S. cerevisiae) (UniProt P07270)
# T1 sequence: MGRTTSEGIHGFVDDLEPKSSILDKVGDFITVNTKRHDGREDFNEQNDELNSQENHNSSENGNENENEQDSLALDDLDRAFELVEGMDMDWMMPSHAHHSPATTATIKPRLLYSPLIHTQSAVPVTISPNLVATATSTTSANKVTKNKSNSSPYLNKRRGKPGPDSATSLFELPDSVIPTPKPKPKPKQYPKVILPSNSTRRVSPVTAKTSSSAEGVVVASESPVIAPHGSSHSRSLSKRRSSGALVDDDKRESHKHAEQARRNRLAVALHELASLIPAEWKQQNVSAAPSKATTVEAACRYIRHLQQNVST
# Assay: relative binding free energy (BET-seq); higher = weaker binding
# Conditions: reference: library average
row,Sequence,relative binding free energy [kcal/mol]
1,ATTGTCACGTGTGTTC,0.13
2,ATTGTCACGTGATAAA,0.22
3,AAGCTCACGTGTTTGA,0.31
4,GTAACCACGTGGGTAT,-0.01
5,TATAGCACGTGTTAAT,-0.01
6,GTGGGCACGTGGTCAG,-0.15
7,CGCGTCACGTGGGTTG,-0.09
8,GGATCCACGTGGAGTG,-0.01
9,GTAGCCACGTGTGCGG,-0.07
10,CATAACACGTGAGGGG,0.19
11,CAATGCACGTGTGGGG,0.01
12,ATATGCACGTGCTGTG,-0.01
13,TGAAGCACGTGAGGAA,0.36
14,CAATGCACGTGGGCGG,-0.14
15,GATAACACGTGGGGCT,0.01
16,TCATGCACGTGTGTAC,0.21
17,TGGTACACGTGTGGTT,0.2
18,CGGGGCACGTGAACGT,0.06
19,TAAGTCACGTGAGTCG,0.32
20,CTTTGCACGTGTAGGA,0.03
21,GAATGCACGTGAAGGT,0.15
22,ATGGGCACGTGTTTTG,-0.01
23,AATGACACGTGGTAGG,-0.15

row,Sequence,relative binding free energy [kcal/mol]
1,CATGGCACGTGTAATT,0.08
2,TATAACACGTGGTGGT,-0.1
3,AGAGCCACGTGGGTGT,-0.17
4,GTGATCACGTGTGAAG,0.16
5,ATTGGCACGTGTTTCA,-0.11
6,AGTGTCACGTGAGCAT,0.13
7,TAAATCACGTGCGTTA,0.11
8,CTATTCACGTGTTTGA,0.11
9,GGGTGCACGTGAACTG,0.07
10,TATGTCACGTGTAAGT,0.16
11,AGATTCACGTGGTAAT,0.18
12,ATTGCCACGTGCGTGT,-0.23
13,AGGGCCACGTGGAGGG,-0.14
14,GCCGGCACGTGGGCGG,-0.27
15,ATTAGCACGTGGGGTT,-0.15
16,GTTTGCACGTGTTTAG,0.11
17,GATTTCACGTGGAGTT,0.44
18,TGGAACACGTGATGAT,0.3
19,GTTTACACGTGGCGAT,0.06
20,CTTTACACGTGTGATT,0.03
21,CTGGGCACGTGCGAGT,0
22,CGTGTCACGTGGACTG,0.08
23,AAGTACACGTGGTCTG,-0.06

row,Sequence,relative binding free energy [kcal/mol]
1,GCGTTCACGTGGGGGT,0.13
2,GGGTTCACGTGTGCGT,0.34
3,GATGGCACGTGTAGTG,0.06
4,TTCAGCACGTGTGTAA,-0.01
5,GTGTACACGTGGAATA,0.09
6,GGGATCACGTGGCTTT,0.27
7,GCTGGCACGTGTAAGT,0.17
8,ATTTACACGTGGTCTT,-0.01
9,AATGGCACGTGATATT,0.02
10,GTCTGCACGTGTGTTA,-0.01
11,ACAGACACGTGGGGAG,-0.1
12,GATCGCACGTGTAGGG,0.13
13,GTGTGCACGTGCTGCG,-0.1
14,AGTTACACGTGCTGTA,-0.03
15,AAGCTCACGTGGTGGT,0.12
16,CAGGTCACGTGTCGTT,0.2
17,CTAATCACGTGTGTGG,0.16
18,ATCATCACGTGGAGTA,0.2
19,AGATGCACGTGTGTTT,0.06
20,AGAGGCACGTGTCAGT,-0.2
21,CGTTGCACGTGTGTGC,-0.01
22,TGTACCACGTGTTTTA,0.07
23,GGTTTCACGTGCGGCA,0.26

row,Sequence,relative binding free energy [kcal/mol]
1,GGTTTCACGTGAAAGC,0.29
2,AGGCGCACGTGGATTT,-0.03
3,ATATTCACGTGATGTC,0.38
4,ATGGACACGTGGAGGT,0.11
5,GTAGTCACGTGTGAGG,0.22
6,TTGGGCACGTGTAGAC,0
7,GGTGTCACGTGCTCAG,0.11
8,CTGAGCACGTGATTTT,0.06
9,TATGCCACGTGAGTGT,0.08
10,TGTTGCACGTGTGAGT,0.1
11,CAGGTCACGTGGGCTT,-0.02
12,TTGCGCACGTGAAGGG,0.14
13,GGGTCCACGTGGGGCA,-0.26
14,TCGGTCACGTGTCTGT,0.1
15,GGTGGCACGTGATAGT,0.02
16,TTGATCACGTGGGGAA,0.08
17,GGGGTCACGTGCTTGC,0.09
18,CTCGGCACGTGTTTGT,-0.19
19,TATGGCACGTGATATG,0.05
20,TGGTCCACGTGGATTT,0.02
21,TCGGGCACGTGGGGAA,-0.33
22,GAGCTCACGTGTTGTT,0.28
23,TGCTTCACGTGCGGGA,0.26

row,Sequence,relative binding free energy [kcal/mol]
1,GGTATCACGTGCAGTT,0.05
2,ATTATCACGTGGGATA,0.13
3,GGTGTCACGTGTCTGG,0.18
4,AATGCCACGTGGTAGT,-0.12
5,TTTTCCACGTGGGGGT,-0.09
6,GAGGTCACGTGTAGTG,0.16
7,GGGATCACGTGAGAGA,0.39
8,TGTGCCACGTGTGGCT,0.02
9,ATCAGCACGTGGGGTG,-0.35
10,ATGATCACGTGTGTCA,0.11
11,GAGTTCACGTGTGTAA,0.28
12,TTGGTCACGTGAGGAT,0.32
13,ACTTACACGTGGGTTT,-0.04
14,GAAGGCACGTGGAAGG,0.01
15,TGGTTCACGTGTAAAA,0.35
16,TGGGCCACGTGTCGGC,0.01
17,GTGAGCACGTGTGACG,-0.03
18,TACGTCACGTGGTAGG,0.1
19,TTTAGCACGTGACTGG,0.06
20,ACGTTCACGTGTATTT,0.16
21,GGCATCACGTGGATTT,0.2
22,GGGAGCACGTGTATGT,-0.09
23,AAATGCACGTGGGTTG,-0.09
